According to US11795481B2, “Processes for producing a fermentation product” (Novozymes A/S, priority 2017, dated 2023):

B1: Penicillium sp-72443: Penicillium sp-72443 AA13 polypeptide of SEQ ID NO: 144 (protein)
chain: MKAAFISTLQCLLTLVNAHGYLTIPSSRTRLGFEAGIDTCPECSILEPVTAWPDLEAAQVGRSGPCGYNARVSVDYNQPGDYWGNSVVATYTANDIVEVQWCVDNNGDHGGMFTYGICQNQTLVDLFLTPGYLPTTEEKQAAEDCFLEGELKCTDVSGQTCGYNPDCTSDQACYRTDWFTCNAFNDDTNRACQGVDGAALNSCTTTIAGGYTVTKKIKIPDYSSDHTLLRFRWNSYQTAQVYLHCADIAISGSGSGSSSTLSTGSTSSTAATSTVTKTSTTTASTTCISATTVPVVFDELVTTTYGENIYITGSIGQLSSWSTLSAIALSASSYTSSNPLWTVTIDLPAGTTFEYKFIKKETDGSIIWESDPNRSYTVPTGCSGLTATASATWR
modifications: Penicillium sp-72443
B2: Fusarium sp-75363: Fusarium sp-75363 AA13 polypeptide of SEQ ID NO: 132 (protein)
chain: MFYSSIITIVTLSTKVYGHGYLSQPMSRTGLNAEAGPDTCPECAILEPVTAWPDLDAAKVGRSGPCGYNARVSVDYNRPGANWGKEPVTTYSPGEVIDVQWCVDNNGDHGGMFTYRICQDQAIVDKFLDPDYIPTEAEKQEAEDCFEAGILPCTDVDGQSCEYSPDCTPDQPCWRNDWFTCKSFQGNDDGKGCRGVDDSPINSCYTSIAGGYTVSSKIKIPDYVSEHTLLSFKWNSFQTPQVYLTCADIAIKA
modifications: Fusarium sp_75363
B3: Trichocladium asperum: Trichocladium asperum AA13 polypeptide of SEQ ID NO: 151 (protein, listed as Trichocladium asperum)
chain: MKQVTALSLIALATSVQGHGYMIGPASRTRQGFEAGTDTCPECTILEPVASWPDLDAAAIGRSGPCGYNARVSVDYNQPGKAWGNEIVETYAAGDVITVQWCVDNNGDHGGMFTYRICQDQALVDKFTDPSYLPTDAEKQAAEDCFNEGILSCGDVDGQDCSYSPDCSEGAACWRNDWFTCEKFGEGSCKGVDGAALNSCVTTIAGGYTVTKKVKLPDYSSEHTLLSFKWNSFQTGQIYLSCADIAITGGSGGGTSPNTTSSLAPVSSTSAPPSSSTSSSPQETCDAGTSVPVTFEEVAVPEAGQVIKLVGSISELGSWSPSAAIALARSANTWSATVNITAGESFEYKFINVEGSQVWWESDPNRSFTVPCGASANVTGTWR
B4: Penicillium sp-54569: Penicillium sp-54569 AA13 polypeptide of SEQ ID NO: 143 (protein)
chain: MKATSILTLASFLSSVNAHGYLTIPSSRTRLGFEAGIDTCPECSILEPVTAWPDLEEAQVGRSGPCGYNARVSVDYNQPGDYWGNSVVATYTADEVVEVQWCVDNNGDHGGMFTYGICQNQTLVDLFLTPGYLPTTDEKQAAEDCFLEGELKCTDVDGQTCGYNPDCTSDEACYRNDWFTCNAFNADSNRACQGVDGAAEGSCTTTISGGYTVTKKIKIPDYDSDHTLLRFRWNSYQTAQVYLHCADIAISGSGSGSTSSSSSSASSTSSTTNTLTTTKSTTTSSATCTAATTISVTFNELVTTTYGENIFISGSISQLSSWSTSSAIALSASSYTSSNPLWTVTISLPVGSTFEYKFIKKETDGSIVWESDPNRSYTVPAGCSGATATATATWR
modifications: Penicillium sp-54569
B5: Setophaeosphaeria sp. NN051506: Setophaeosphaeria sp. NN051506 AA13 polypeptide of SEQ ID NO: 149 (protein)
chain: MRSAIGKVIAFVASVNAHGYLTSPMSRTGLNAQSGADTCPECTILEPVTAWPDLDSAQVGRSGPCGYNARVSVDYNQPGPRWGSAPVITYTAGDVVDVQWCVDNNGDHGGMFTYRICQDQALVDKLITPGYLPTDAEKQAAEDCFERGLLKCTDVSGQTCGYNPDCQSGQACWRNDWFTCKGFNEGSKCKGVDGAPLNSCYTSIAGGYTVSSKIKIPNYSSNHTLLSFKWNSFQTPQVYLTCADIKIVGSGGTTPTSSSTTTVSTSTATASATSCATPVSNVAVTFTSKTTTIFGQTIKIAGSIAQLGSWNTANAPALSADQYTAANPIWRTTISLPAGTSFEYKFIKVESSGAVTYESGANRVYTVPNGCAGTASVDTTWK
modifications: Setophaeosphaeria sp. NN051506

Tested on: multi-strain LAB culture
Test: SSF of control mash with 1% w/w infected mash, AA13 candidates, HPLC of organic acids and ethanol (Example 3)
Assay type: cell-based
Conditions: SSF 32° C. up to 24 hours, 20% DS; for % delta Ethanol / % delta Lactic Acid: vs No Treatment
Method: A control mash was prepared in-house with an industry relevant blend of AA369 and Protease Pfu using a Lab-O-Mat incubator for 2 hours at 85° C. and 36% DS to simulate typical industry conditions. The mash was then frozen prior to use in SSF. An infected mash was prepared by infecting the control mash with a multi-strain LAB culture grown in MRS. The bacteria in control mash was incubated overnight, and then frozen with 20% glycerol. For this experiment, 1% weight/weight of the infected mash was mixed into the control mash. This mimics an infection event at a large-scale ethanol facility. For SSF, all mash was prepared with 1000 ppm of urea to aid with yeast fermentation. All treatments were dosed with a baseline commercial glucoamylase GSA, while AA13 candidates were dosed at either 10 ug/g-DS or 50 ug/g-DS. SSF was performed at 5 g scale with 10 uL/g rehydrated Ethanol Red yeast at 32° C. for up to 24 hours at 20% DS. At the end of fermentation, samples were deactivated with 50 uL of 40% sulfuric acid and then centrifuged. The supernatant was filtered through a 0.2 μm filter and then measured for soluble carbohydrates and organic acids using an ion-exchange H-column on HPLC.

| Molecule | average Ethanol (AA13 dose 10 ug/g-DS) | average Lactic Acid (AA13 dose 10 ug/g-DS) | % delta Ethanol (AA13 dose 10 ug/g-DS) | % delta Lactic Acid (AA13 dose 10 ug/g-DS) | average Ethanol (AA13 dose 50 ug/g-DS) | average Lactic Acid (AA13 dose 50 ug/g-DS) | % delta Ethanol (AA13 dose 50 ug/g-DS) | % delta Lactic Acid (AA13 dose 50 ug/g-DS) |
| --- | --- | --- | --- | --- | --- | --- | --- | --- |
| B1 | 79.3 g/L | 2.9 g/L | 2.2% | −12.5% | 79.5 g/L | 3.0 g/L | 2.3% | −10.3% |
| B2 | 78.1 g/L | 3.2 g/L | 0.6% | −3.5% | 78.5 g/L | 3.3 g/L | 1.2% | −1.6% |
| B3 | 78.0 g/L | 3.3 g/L | 0.5% | −1.5% | 77.8 g/L | 3.3 g/L | 0.3% | −0.4% |
| B4 | 76.2 g/L | 3.4 g/L | −1.8% | 3.0% | 77.4 g/L | 3.3 g/L | −0.3% | −0.6% |
| B5 | 77.2 g/L | 3.3 g/L | −0.5% | −0.2% | 77.5 g/L | 3.3 g/L | −0.1% | −1.7% |
